Results published in patent US7592316B2, “Peptides as NS3-serine protease inhibitors of hepatitis C virus” (Schering Corporation, priority 2000, dated 2009).
*1 amine or outer side, *2 acyl side, *3 side chain or, on linkers, in order; H or OH if unused. Where a SMILES comes first, the peptide text is derived from it. [ ]: non-standard residue; d: D form. The star is where a group is joined. ξ: configuration not given here. Pro(3R,4S-CMe2) = CC1(C)[C@@H]2[C@@H](C(=O)O)NC[C@@H]21; Pro(3S,4R-CCl2) = O=C(O)[C@H]1NC[C@H]2[C@@H]1C2(Cl)Cl; Pro(trans-3-OtBu) = CC(C)(C)O[C@H]1CCN[C@@H]1C(=O)O; Pro(4,4-SCH2CH2S) = O=C(O)[C@@H]1CC2(CN1)SCCS2; CF3C(Me)2OCO = CC(C)(OC(=O)*)C(F)(F)F; Isobutyloxycarbonyl = CC(C)COC(=O)*; X8 = O=C(C(=O)[*:2])C(CC1CC1)N[*:1]; X4 = CCCCC(N[*:1])C(=O)C(=O)[*:2]; X2 = CCCC(N[*:1])C(=O)C(=O)[*:2]; Chg = N[C@H](C(=O)O)C1CCCCC1; Phg = N[C@H](C(=O)O)c1ccccc1; Tle = CC(C)(C)[C@H](N)C(=O)O; ξhPhe = NC(CCc1ccccc1)C(=O)O; ξChg = NC(C(=O)O)C1CCCCC1; ξPhg = NC(C(=O)O)c1ccccc1; Boc = CC(C)(C)OC(=O)*; CO = O=C([*:1])[*:2]; ξV = CC(C)C(N)C(=O)O; NHtBu = CC(C)(C)N*

Target: HCV NS3/NS4A protease (strain 1a) (Hepatitis C virus genotype 1a, UniProt P27958)
Assay: biochemical
Settings: Compounds prepared by Solid Phase Synthesis, Table 3; read-out: Ki* CLASS

Row | SMILES | Ki [nM]
1 | CCCC(NC(=O)[C@@H]1CCCN1C(=O)C(NC(=O)OCC(C)C)C(C)C)C(=O)C(=O)NCC(=O)NC(CCc1ccccc1)C(N)=O (stereo partly shown) (Isobutyloxycarbonyl-[ξV]P[X2]G[ξhPhe]-NH2) | > 1000

Same assay, conditions: HCV protease continuous assay results, Table 1; read-out: Ki* Range

Row | SMILES | Ki [nM]
2 | CCCC(NC(=O)[C@@H]1CC2(CN1C(=O)C(O)C(C)(C)C)SCCCS2)C(=O)C(=O)NCC(=O)NC(C(=O)N(C)C)c1ccccc1 (stereo partly shown) [Example 292] | > 1000
3 | CCCC(NC(=O)[C@@H]1CC2(CN1C(=O)C(NC(=O)OCC(C)C)C1CCCCC1)SCCS2)C(=O)C(=O)NCC(=O)NC(C(=O)NC)c1ccccc1 (stereo partly shown) [Example 101] (Isobutyloxycarbonyl-[ξChg][Pro(4,4-SCH2CH2S)][X2]G[ξPhg]-NHMe) | 1 to 100

Same assay, conditions: Table 4; HCV NS3/NS4A protease, spectrophotometric assay, 30° C., pH 6.5; read-out: Ki* Range

Row | Ki [nM] | SMILES
4 | 101 to 1000 | CCCC(NC(=O)C1C[C@@H](NS(=O)(=O)c2ccc(C)cc2)CN1C(=O)[C@@H](NC(=O)OCC(C)C)C1CCCCC1)C(=O)C(=O)NCC(=O)N[C@H](C(N)=O)c1ccccc1 (stereo partly shown)

Same assay, conditions: Table 5; HCV NS3/NS4A protease, 30° C., pH 6.5; read-out: Ki* Range

Row | Ki [nM] | SMILES
5 | > 1000 | C=CCNC(=O)C(=O)C(CC)NC(=O)[C@@H]1[C@@H]2[C@H](CN1C(=O)[C@@H](NC(=O)OC(C)(C)C)C(C)(C)C)C2(C)C (stereo partly shown)
6 | > 1000 | C=CCCC(NC(=O)[C@@H]1[C@@H]2[C@H](CN1C(=O)[C@@H](NC(=O)NC13CC4CC(CC(C4)C1)C3)C1CCCCC1)C2(C)C)C(=O)C(=O)NCCC(=O)OC12CC3CC(CC(C3)C1)C2 (stereo partly shown)
7 | 101 to 1000 | C=CCCC(NC(=O)[C@@H]1[C@@H]2[C@H](CN1C(=O)[C@@H](NC(=O)NC13CC4CC(CC(C4)C1)C3)C1CCCCC1)C2(C)C)C(=O)C(=O)NC/C=C/C(=O)NCc1ccccc1 (stereo partly shown) [drawing 1957]

Same assay, conditions: Table 5; HCV NS3/NS4A protease, spectrophotometric assay, 30° C., pH 6.5; read-out: Ki* Range

Row | SMILES | Ki [nM]
8 | CCCCC(NC(=O)[C@@H]1[C@@H](OC(C)(C)C)CCN1C(=O)[C@@H](NC(=O)OC(C)(C)C)C(C)(C)C)C(=O)C(=O)NCC(=O)NC(C(=O)N(C)C)c1ccccc1 (stereo partly drawn) (Boc-[Tle][Pro(trans-3-OtBu)][X4]G[ξPhg]-NMe2) | > 1000
9 | C=CCNC(=O)C(=O)C(CCC)NC(=O)[C@@H]1[C@@H]2[C@H](CN1C(=O)[C@@H](NC(=O)[C@H](CC(C)C)NS(C)(=O)=O)C1CCCCC1)C2(C)C (stereo partly shown) | 101 to 1000

The remaining lines, values ahead:

Row | Ki [nM] | SMILES
10 | > 1000 | CCCC(NC(=O)C1C2C(CN1C(=O)C(CC1CC1)NC(=O)OC(C)(C)C)C2(C)C)C(=O)C(N)=O (stereo not shown)
11 | 101 to 1000 | CCCC(NC(=O)[C@@H]1[C@@H]2[C@H](CN1C(=O)C(NC(=O)OC(C)(C)C)C1CCC(F)(F)CC1)C2(C)C)C(=O)C(N)=O (stereo partly shown)
12 | > 1000 | CCCC(NC(=O)C1C2C(CN1C(=O)C(NC(=O)N1CCOCC1)C1CCCCC1)C2(C)C)C(=O)C(N)=O (stereo not shown)
13 | 1 to 100 | CN(C)C(=O)[C@@H](NC(=O)CNC(=O)C(=O)C(CC1CC1)NC(=O)[C@@H]1C2C(CN1C(=O)[C@@H](NC(=O)OC(C)(C)C)C1Cc3ccccc3C1)C2(C)C)c1ccccc1 (stereo partly shown) [drawing 1614]
14 | 1 to 100 | CC(C)(C)[C@H](NC(=O)OC(C)(C)C(F)(F)F)C(=O)N1C[C@H]2[C@@H]([C@H]1C(=O)NC(CC1CC1)C(=O)C(N)=O)C2(C)C (stereo partly shown)
15 | > 1000 | COC(=O)C(=O)C(CC(C)C)NC(=O)[C@@H]1[C@H]2[C@@H](CN1C(=O)[C@@H](NC(=O)OC(C)(C)C)C1Cc3ccccc3C1)C2(C)C (stereo partly shown)

Same assay, conditions: Table 6; HCV NS3/NS4A protease, 30° C., pH 6.5; read-out: Ki*

Row | SMILES | Ki [nM]
16 | CN(C)C(=O)C(NC(=O)CNC(=O)C(=O)C(CC1CC1)NC(=O)[C@@H]1[C@@H]2[C@H](CN1C(=O)[C@@H](NC(=O)OC(C)(C)C(F)(F)F)C(C)(C)C)C2(Cl)Cl)c1ccccc1 (stereo partly drawn) ({CF3C(Me)2OCO}-[Tle][Pro(3S,4R-CCl2)][X8]G[ξPhg]-NMe2) | 1 to 100
17 | COC(=O)C(C)(C)OC(=O)N[C@H](C(=O)N1C[C@H]2[C@@H]([C@H]1C(=O)NC(CC1CCC1)C(=O)C(N)=O)C2(Cl)Cl)C1CCCCC1 (stereo partly shown) | 101 to 1000
18 | CN(C)C(=O)[C@@H](NC(=O)CNC(=O)C(=O)C(CC1CCC1)NC(=O)[C@@H]1[C@H]2CC(C)(C)C[C@H]2CN1C(=O)[C@@H](NC(=O)OC(C)(C)C)C(C)(C)C)c1ccccc1 (stereo partly shown) | 1 to 100
19 | CN(C)C(=O)[C@@H](NC(=O)CNC(=O)C(=O)C(CC1CC1)NC(=O)[C@@H]1[C@@H]2[C@H](CN1C(=O)[C@@H](NC(=O)NC(C)(C)C)C1CCCCC1)C2(C)C)c1ccccc1 (stereo partly drawn) ({NHtBu-CO}-[Chg][Pro(3R,4S-CMe2)][X8]G[Phg]-NMe2) | 1 to 100
